Laboratory results reported in US20240124575A1 (SIMCERE ZAIMING PHARMACEUTICAL, published 2024).

T1: murine CD33-His protein (murine, UniProt Q63994 18-240, limits assumed)
T1 construct: also called murine CD33 protein
T1 sequence (looked up): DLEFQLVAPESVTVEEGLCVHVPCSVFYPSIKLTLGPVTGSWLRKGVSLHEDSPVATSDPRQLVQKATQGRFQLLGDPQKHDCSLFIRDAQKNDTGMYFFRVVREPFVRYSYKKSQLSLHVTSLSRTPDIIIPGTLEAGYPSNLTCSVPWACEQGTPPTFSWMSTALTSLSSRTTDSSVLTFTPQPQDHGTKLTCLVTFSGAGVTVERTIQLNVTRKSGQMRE

B1: S006-NB146-39-aH8 (Fc fusion)
chain: EVQLVESGGGLVQPGGSLRLSCAASGIILDYYPIGWFRQAPGKEREGVAFITNSDDSTIYTNYADSVKGRFTISRDKNSLYLQMNSLRAEDTAVYYCAARSTYIVGRNENALNSADYDYWGQGTMVTVSS[letters of human IgG1 Fc with changes left out]
notes: also called humanized VHH-Fc
B2: S006-NB146-39-aH9 (Fc fusion)
chain: EVQLVESGGGLVQPGGSLRLSCAASGIILDYYPIGWFRQAPGKEREGVAFITNSDSSTIYTNYADSVKGRFTISRDKNSLYLQMNSLRAEDTAVYYCAARSTYIVGRNENALNSADYDYWGQGTMVTVSS[letters of human IgG1 Fc with changes left out]
notes: also called humanized VHH-Fc
B3: S006-NB146-39-aH10 (Fc fusion)
chain: EVQLVESGGGLVQPGGSLRLSCTAPGIILDYYPIGWFRQAPGKEREGVAFITNSDDSTIYTNYADSVKGRFTISRDKNSLYLQMNSLRAEDTAVYYCAARSTYIVGRNENALNSADYDYWGQGTMVTVSS[letters of human IgG1 Fc with changes left out]
notes: also called humanized VHH-Fc
B4: S006-NB146-39-aH11 (Fc fusion)
chain: EVQLVESGGGLVQPGGSLRLSCTAPGIILDYYPIGWFRQAPGKEREGVAFITNSDSSTIYTNYADSVKGRFTISRDKNSLYLQMNSLRAEDTAVYYCAARSTYIVGRNENALNSADYDYWGQGTMVTVSS[letters of human IgG1 Fc with changes left out]
notes: also called humanized VHH-Fc
B5: S006-NB146-39-aH12 (Fc fusion)
chain: EVQLVESGGGLVQPGGSLRLSCAASGIILDYYPIGWFRQAPGKEREGVAFITNSDDSTIYTNYADSVKGRFTISREKNTLYLQMNSLRAEDTAVYYCAARSTYIVGRNENALNSADYDYWGQGTMVTVSS[letters of human IgG1 Fc with changes left out]
notes: also called humanized VHH-Fc
B6: S006-NB146-39-aH13 (Fc fusion)
chain: EVQLVESGGGLVQPGGSLRLSCAASGIILDYYPIGWFRQAPGKEREGVAFITNSDSSTIYTNYADSVKGRFTISREKNTLYLQMNSLRAEDTAVYYCAARSTYIVGRNENALNSADYDYWGQGTMVTVSS[letters of human IgG1 Fc with changes left out]
notes: also called humanized VHH-Fc

Legend:
human CD33-V-his = biological target: T2, human CD33-V-his (human, UniProt P20138 18-144); test: ELISA on coated human CD33-V-his
human CD33-V-his, sequence (P20138 other isoform, or with tags, fused parts or gaps limits assumed): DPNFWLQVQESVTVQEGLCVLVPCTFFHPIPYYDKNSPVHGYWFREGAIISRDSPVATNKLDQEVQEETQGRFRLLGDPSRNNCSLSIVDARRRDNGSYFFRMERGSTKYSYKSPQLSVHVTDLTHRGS
T2 construct: expressed in HEK293E; also called hCD33-V-his; human CD33 protein V-domain; not shown: His tag

murine CD33-His protein = biological target: T1, murine CD33-His protein; test: ELISA on coated murine CD33-his

| Binder | binding result (human CD33-V-his) | binding result (murine CD33-His protein) |
| --- | --- | --- |
| B1 | no binding (tested: 100 nM) | no binding (tested: 100 nM) |
| B2 | no binding (tested: 100 nM) | no binding (tested: 100 nM) |
| B3 | no binding (tested: 100 nM) | no binding (tested: 100 nM) |
| B4 | no binding (tested: 100 nM) | no binding (tested: 100 nM) |
| B5 | no binding (tested: 100 nM) | no binding (tested: 100 nM) |
| B6 | no binding (tested: 100 nM) | no binding (tested: 100 nM) |
